Results as given in publication PMC4336329 (PLoS ONE, 2015).
Out of some 310,000 compounds screened, about 2,200 (0.71%) showed an effect of 50% or more. Effects have a minus sign here. The list shows a part of the results.

target: human ether-à-go-go-related gene (hERG) potassium channel (human, UniProt Q12809); assay: primary screen, population patch clamp on CHO cells stably expressing hERG
Sequence (Q12809 whole entry, looked up): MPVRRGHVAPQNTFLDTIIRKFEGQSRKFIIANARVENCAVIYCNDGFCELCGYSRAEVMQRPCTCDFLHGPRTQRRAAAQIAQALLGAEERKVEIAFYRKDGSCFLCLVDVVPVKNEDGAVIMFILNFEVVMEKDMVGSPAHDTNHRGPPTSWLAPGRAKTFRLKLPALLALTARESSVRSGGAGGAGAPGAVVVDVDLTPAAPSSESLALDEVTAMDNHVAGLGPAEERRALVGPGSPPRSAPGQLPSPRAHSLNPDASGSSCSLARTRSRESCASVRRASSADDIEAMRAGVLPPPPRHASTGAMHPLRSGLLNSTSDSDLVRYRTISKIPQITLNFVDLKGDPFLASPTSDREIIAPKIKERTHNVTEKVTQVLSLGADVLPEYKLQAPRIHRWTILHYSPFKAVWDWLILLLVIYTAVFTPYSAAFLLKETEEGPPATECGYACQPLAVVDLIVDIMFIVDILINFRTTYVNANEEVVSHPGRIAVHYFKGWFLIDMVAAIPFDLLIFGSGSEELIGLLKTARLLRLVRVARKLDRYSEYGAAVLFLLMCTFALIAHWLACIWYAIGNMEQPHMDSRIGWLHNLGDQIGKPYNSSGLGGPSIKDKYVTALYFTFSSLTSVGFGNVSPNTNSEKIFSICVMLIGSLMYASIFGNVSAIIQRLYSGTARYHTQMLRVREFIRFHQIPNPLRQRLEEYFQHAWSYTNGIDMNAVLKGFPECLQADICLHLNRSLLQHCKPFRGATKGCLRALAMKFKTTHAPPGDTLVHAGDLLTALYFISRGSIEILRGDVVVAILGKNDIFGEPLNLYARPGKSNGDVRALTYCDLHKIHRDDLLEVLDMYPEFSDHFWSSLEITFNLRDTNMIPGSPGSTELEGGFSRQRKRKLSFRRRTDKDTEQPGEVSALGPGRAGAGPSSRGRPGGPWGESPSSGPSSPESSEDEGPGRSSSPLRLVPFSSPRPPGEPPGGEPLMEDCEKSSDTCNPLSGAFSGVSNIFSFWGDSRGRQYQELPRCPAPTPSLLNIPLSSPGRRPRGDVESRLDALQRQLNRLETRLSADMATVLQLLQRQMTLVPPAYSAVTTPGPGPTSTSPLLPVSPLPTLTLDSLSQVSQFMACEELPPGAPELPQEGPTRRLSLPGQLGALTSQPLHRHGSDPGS

Which “hERG current change (%, negative = inhibition) at 1uM” value does the source give for COc1ccc(N2C(=NC(C)=O)SC3CS(=O)(=O)CC32)cc1OC (stereo not drawn) here?
Its value is 1.39%.

How did the “hERG current change (%, negative = inhibition) at 1uM” value turn out when O=C(CSc1n[nH]c(=O)n1C1CC1)Nc1ccc(Cl)c(Cl)c1 was run?
The value was -9.47%.

Cc1cccc(-n2c(CCn3nc(C)c([N+](=O)[O-])c3C)n[nH]c2=S)c1 was tested. Which “hERG current change (%, negative = inhibition) at 1uM” value did it give?
Its value is 1.58%.

How did the “hERG current change (%, negative = inhibition) at 1uM” value turn out when COC(=O)c1ccccc1NC(=O)NCCc1ccc(OC)c(OC)c1.Cl was run?
Its value is 18.5%.

For Cc1cc(N2C(=O)CC(N3CCN(c4ccc(C(=O)c5cccs5)cc4)CC3)C2=O)no1 (stereo not drawn), which “hERG current change (%, negative = inhibition) at 1uM” value is on record?
The value was 6.53%.

For CCOC(=O)c1[nH]cnc1C(=O)Nc1ccncc1, which “hERG current change (%, negative = inhibition) at 1uM” value is on record?
Its value is 9.31%.

How did the “hERG current change (%, negative = inhibition) at 1uM” value turn out when COc1ccc(C(=O)Nc2ccccc2NC(=O)c2ccco2)cc1OC was run?
The value was -9.39%.

CCCn1nnnc1NC(=O)c1ccc2ccccc2c1 was tested. Which “hERG current change (%, negative = inhibition) at 1uM” value did it give?
The value was 11.2%.

Which “hERG current change (%, negative = inhibition) at 1uM” value does the source give for C=C1C(=O)O[C@@H]2C[C@@H](C)[C@@H]3C=CC(=O)[C@@]3(C)[C@@H](OC(=O)CC(=O)O[C@H]3[C@@H]4C(=C)C(=O)O[C@@H]4C[C@@H](C)[C@@H]4C=CC(=O)[C@]43C)[C@H]12 here?
The value was -2.24%.

For CCCc1cc(C(=O)Cc2ccc(C(=O)OCC)o2)c(O)cc1O, which “hERG current change (%, negative = inhibition) at 1uM” value is on record?
The value was 10.7%.

Which “hERG current change (%, negative = inhibition) at 1uM” value does the source give for COc1ccc(-n2c(Cc3cccn3C)nnc2SCC(=O)Nc2ccc(F)cc2F)cc1 here?
Its value is -7.38%.

Which “hERG current change (%, negative = inhibition) at 1uM” value does the source give for CSc1nc(NC(C)=O)nc(C)c1Br here?
The value was 4.71%.

How did the “hERG current change (%, negative = inhibition) at 1uM” value turn out when O=C(Nc1cc(C(F)(F)F)ccc1Cl)c1cccc(N2C(=O)CCC2=O)c1 was run?
Its value is 16.8%.

Which “hERG current change (%, negative = inhibition) at 1uM” value does the source give for COc1ccc(NC(=O)CC(CC(=O)O)c2cc(OC)c(OC)c(OC)c2)cc1 (stereo not drawn) here?
The value was 6.21%.

CC(C)Sc1ncnc2c1oc1ccccc12 was tested. Which “hERG current change (%, negative = inhibition) at 1uM” value did it give?
Its value is 7.79%.

How did the “hERG current change (%, negative = inhibition) at 1uM” value turn out when O=C(CSc1ccc(Cl)cc1)NCC1CCCO1 (stereo not drawn) was run?
The value was 5.01%.

Which “hERG current change (%, negative = inhibition) at 1uM” value does the source give for CSCC[C@@H](CO)NC(=O)c1ccc2nc(C3CCCCC3)oc2c1 here?
The value was 9.24%.

Which “hERG current change (%, negative = inhibition) at 1uM” value does the source give for COc1cccc(CN2CCN(C(=O)c3oc4c(F)cccc4c3C)CC2=O)c1 here?
The value was 10.7%.

With Cc1ccc(CNC(=O)C2=CCN(S(=O)(=O)c3ccc(C)cc3)CC2)cc1 as the compound, how does the “hERG current change (%, negative = inhibition) at 1uM” value read?
Its value is -0.106%.

COc1ccccc1C(=O)NCCC(=O)N(C)Cc1cccs1 was tested. Which “hERG current change (%, negative = inhibition) at 1uM” value did it give?
The value was 5.95%.

O=[N+]([O-])c1cccc(CN2CCCCCC2)c1 was tested. Which “hERG current change (%, negative = inhibition) at 1uM” value did it give?
The value was 11.4%.

Which “hERG current change (%, negative = inhibition) at 1uM” value does the source give for N#C/C(=C/c1ccc(-c2ccccc2)o1)c1nc(-c2cccs2)cs1 here?
The value was 12.2%.

With O=C(Nc1ccccc1)Nc1ccccc1Br as the compound, how does the “hERG current change (%, negative = inhibition) at 1uM” value read?
Its value is 5.45%.

How did the “hERG current change (%, negative = inhibition) at 1uM” value turn out when NC(=O)CC(NC(=O)Cc1ccc(Br)cc1)c1ccc(NCCOc2ccccc2)c([N+](=O)[O-])c1 (stereo not drawn) was run?
Its value is 3.53%.

For COC(=O)C1=C(C)N(Cc2cccnc2)C(=O)C1, which “hERG current change (%, negative = inhibition) at 1uM” value is on record?
The value was -1.21%.

With COc1cccc2sc(NN)nc12 as the compound, how does the “hERG current change (%, negative = inhibition) at 1uM” value read?
The value was 0.731%.

For Nc1c(S(=O)(=O)c2cccs2)c2nc3ccccc3nc2n1CC1CCCO1 (stereo not drawn), which “hERG current change (%, negative = inhibition) at 1uM” value is on record?
The value was -1.64%.

For O=C(Cc1ccccc1)Nc1nnc(-c2cccs2)s1, which “hERG current change (%, negative = inhibition) at 1uM” value is on record?
The value was 2.47%.

With Clc1ccccc1Cc1noc(CN2CCSCC2)n1 as the compound, how does the “hERG current change (%, negative = inhibition) at 1uM” value read?
The value was 10.7%.

Which “hERG current change (%, negative = inhibition) at 1uM” value does the source give for COCCCNC(=S)N1CCN(Cc2ccc3c(c2)OCO3)CC1 here?
Its value is 7.53%.

With COc1ccc(N2CCN(C(=O)COc3ccc(S(=O)(=O)N4CCOCC4)cc3C)CC2)cc1 as the compound, how does the “hERG current change (%, negative = inhibition) at 1uM” value read?
Its value is 7.16%.

How did the “hERG current change (%, negative = inhibition) at 1uM” value turn out when c1ccc(Nc2nnc(-c3cccnc3)s2)cc1 was run?
Its value is 12.7%.

Cc1ccc(CSC2=NCCN2S(=O)(=O)c2ccccc2)cc1 was tested. Which “hERG current change (%, negative = inhibition) at 1uM” value did it give?
The value was 11.3%.

With O=C(Cn1cnc2c(cnn2-c2ccccc2)c1=O)N1CCN(c2ccc(F)cc2)CC1 as the compound, how does the “hERG current change (%, negative = inhibition) at 1uM” value read?
Its value is -11%.

Which “hERG current change (%, negative = inhibition) at 1uM” value does the source give for Cc1ccc(CCNC(=O)CCCn2nc(C)c3c(C)n(-c4ccc(C)cc4)nc3c2=O)cc1 here?
Its value is 2.7%.

Cc1ccc(C(=O)Cn2c(C)cc(C)c(C#N)c2=O)cc1 was tested. Which “hERG current change (%, negative = inhibition) at 1uM” value did it give?
The value was 12.1%.

How did the “hERG current change (%, negative = inhibition) at 1uM” value turn out when Cc1cc(=O)oc(C)c1C(=O)NCCC(C)C was run?
The value was -4.19%.

Which “hERG current change (%, negative = inhibition) at 1uM” value does the source give for O=C(Nc1nc(=O)[nH]s1)c1ccccc1 here?
Its value is 10.6%.

For NNc1nc2ccc(F)cc2s1, which “hERG current change (%, negative = inhibition) at 1uM” value is on record?
Its value is -5.57%.

Which “hERG current change (%, negative = inhibition) at 1uM” value does the source give for CN(C)c1nc(N)c2ncc(=S)[nH]c2n1 here?
Its value is 6.98%.

CC(=O)c1ccc(NC(=O)C(C)Sc2nnc3ccccn23)cc1 (stereo not drawn) was tested. Which “hERG current change (%, negative = inhibition) at 1uM” value did it give?
Its value is -1.85%.

For Cn1c(CSc2nc3ccccc3s2)nnc1SCC(=O)NCCN1CCOCC1, which “hERG current change (%, negative = inhibition) at 1uM” value is on record?
Its value is 9.96%.

Which “hERG current change (%, negative = inhibition) at 1uM” value does the source give for O=C(COC(=O)C1CCN(S(=O)(=O)c2cccc3cccnc23)CC1)c1ccccc1 here?
The value was 9.49%.

How did the “hERG current change (%, negative = inhibition) at 1uM” value turn out when Cc1ccccc1C(OCC(O)CN1CCCCC1CCO)c1ccccc1 (stereo not drawn) was run?
Its value is -25.3%.

For Brc1cccc(CNn2cnnc2)c1, which “hERG current change (%, negative = inhibition) at 1uM” value is on record?
Its value is 18.6%.
